Measurements taken from PMC4336329 (PLoS ONE, 2015).
Hit rate of the full screen: of about 310,000 compounds, about 2,200 (0.71%) showed an effect of 50% or more. The effect is printed as a negative number. The list shows a part of the results.

What follows are compounds tested against human ether-à-go-go-related gene (hERG) potassium channel (human, UniProt Q12809) (assay: primary screen, population patch clamp on CHO cells stably expressing hERG).
human ether-à-go-go-related gene (hERG) potassium channel, sequence (Q12809 whole entry, looked up): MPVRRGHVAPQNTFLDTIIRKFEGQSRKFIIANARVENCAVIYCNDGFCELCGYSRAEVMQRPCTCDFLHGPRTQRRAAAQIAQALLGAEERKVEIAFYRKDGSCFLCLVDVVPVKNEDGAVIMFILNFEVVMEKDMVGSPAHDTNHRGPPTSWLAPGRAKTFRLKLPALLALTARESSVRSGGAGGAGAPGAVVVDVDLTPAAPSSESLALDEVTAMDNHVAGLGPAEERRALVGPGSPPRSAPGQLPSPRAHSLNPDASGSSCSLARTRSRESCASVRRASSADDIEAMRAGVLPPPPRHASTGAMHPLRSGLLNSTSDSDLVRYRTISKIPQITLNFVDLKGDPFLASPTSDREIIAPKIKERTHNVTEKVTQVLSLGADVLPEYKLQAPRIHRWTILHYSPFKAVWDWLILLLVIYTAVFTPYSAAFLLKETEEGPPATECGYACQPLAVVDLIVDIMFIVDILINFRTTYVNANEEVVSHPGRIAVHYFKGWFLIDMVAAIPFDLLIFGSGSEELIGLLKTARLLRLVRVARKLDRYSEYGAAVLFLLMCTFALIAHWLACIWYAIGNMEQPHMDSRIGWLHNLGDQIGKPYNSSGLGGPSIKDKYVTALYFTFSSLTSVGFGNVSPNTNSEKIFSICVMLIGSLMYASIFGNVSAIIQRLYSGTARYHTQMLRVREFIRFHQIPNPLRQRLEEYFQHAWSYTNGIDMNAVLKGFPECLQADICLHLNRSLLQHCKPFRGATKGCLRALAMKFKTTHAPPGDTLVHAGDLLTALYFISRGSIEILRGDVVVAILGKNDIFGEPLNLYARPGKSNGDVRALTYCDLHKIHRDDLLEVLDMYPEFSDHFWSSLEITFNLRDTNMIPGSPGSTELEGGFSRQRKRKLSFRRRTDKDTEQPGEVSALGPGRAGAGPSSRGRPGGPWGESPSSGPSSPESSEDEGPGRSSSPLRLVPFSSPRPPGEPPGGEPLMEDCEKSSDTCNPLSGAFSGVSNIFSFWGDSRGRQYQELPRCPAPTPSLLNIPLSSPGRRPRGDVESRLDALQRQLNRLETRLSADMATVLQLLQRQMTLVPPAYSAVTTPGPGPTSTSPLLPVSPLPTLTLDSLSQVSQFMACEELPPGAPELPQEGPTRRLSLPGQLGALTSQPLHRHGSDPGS

Row | SMILES | hERG current change (%, negative = inhibition) at 1uM [%]
1 | C[C@H](NC(=O)c1ccccc1)C(=O)OCC(=O)c1c[nH]c2ccccc12 | -12.7
2 | O=C(c1[nH]ncc1-c1ccc(Cl)cc1)C1CO1 (stereo not drawn) | 7.69
3 | COc1ccc(S(=O)(=O)N2CCN(Cc3c[nH]c4ccccc34)CC2)cc1 | 0.158
4 | CCOC(=O)C/C(C)=N/NC(=O)CN(c1ccc(Br)cc1)S(=O)(=O)c1ccccc1 | 5.62
5 | CCS(=O)(=O)n1nc(-c2ccc(OC)cc2)nc1SC | 15.7
6 | CC1CCN(CC(=O)Nc2ccc(S(=O)(=O)N3CCC(C)CC3)cc2)CC1.Cl | 10.8
7 | CCCN(CC(=O)Nc1ccccc1C)C(=O)c1ccc(S(=O)(=O)N2CCCC2)cc1 | 6.35
8 | CCN(CC)C(=O)CSc1nnc(COc2ccc(OC)cc2)n1N | 11.9
9 | O=C(Nc1ccccc1)c1ccc(OC(=O)c2ccccc2)cc1 | 14.9
10 | O=C(CCC(=O)N(CC(=O)NC1CCCC1)c1ccccc1F)Nc1nccs1 | 1.53
11 | Cc1ccc(C2CC(=O)C=C(NCC(C)C)C2)cc1 (stereo not drawn) | 13.5
12 | NS(=O)(=O)c1ccc(CCNC(=O)CNC(=O)c2ccc(Br)o2)cc1 | 10.3
13 | Cc1ccc(C2c3[nH]c4ccccc4c3C[C@H]3C(=O)N(c4ccccc4C(=O)N4CCC[C@H]4C(=O)O)C(=O)N23)cc1 (stereo partly drawn) | 13.3
14 | CCOC(=O)[C@H]1[C@H]2COc3ccc(OC)cc3[C@@H]2N2C(=O)CN(Cc3ccc(C)cc3)C(=O)[C@@]12C | 6.79
15 | O=C(O)C1C(c2ccccc2)C(C(=O)Oc2ccccc2)C1c1ccccc1 (stereo not drawn) | 8.27
16 | CC(OC(=O)c1ccc(-n2cnnn2)cc1)C(=O)NCc1ccccc1 (stereo not drawn) | -3.66
17 | COc1ccccc1NC(=O)/C=C/C(=O)O | 10.5
18 | Cc1cccc(OCc2nnc(SCC(=O)N3CCN(C(=O)c4ccco4)CC3)n2C)c1C | -10.8
19 | O=C(CSc1ncn(-c2ccccc2)n1)Nc1ccc(Br)cn1 | -6.14

Row | SMILES | hERG current change (%, negative = inhibition) at 1uM [%]
20 | CCc1nc(Nc2ccc3nccnc3c2)c2oc3ccccc3c2n1.Cl | 11
21 | COc1cc(/C=C/C(=O)OCC(=O)NC(=O)NC(C)(C)C)cc(OC)c1OC | 13.4
22 | O=C(C1CCC(CNS(=O)(=O)c2cccc3nsnc23)CC1)N1CCN(c2ccccn2)CC1 (stereo not drawn) | -4.83
23 | CSc1ccccc1C(=O)C1CCCN(S(=O)(=O)N(C)C)C1 (stereo not drawn) | 3.79
24 | C/C=C(\C)CN1CCCC(CO)(Cc2ccccc2)C1 (stereo not drawn) | 4.42
25 | O=C(NC1CCCCC1)C(c1ccccn1)N(C(=O)c1csnn1)c1ccccc1 (stereo not drawn) | 4.98
26 | CCCCOc1ccc(NC(=O)c2cnc(C)cn2)cc1 | 5.98
27 | Nc1cc(=O)[nH]c(N2CCN(c3ccccc3)CC2)n1 | 19.2
28 | CCCCOc1ccc(C(=O)Nc2cccc(C)n2)cc1 | 3.16
29 | N#C/C(=C/c1ccco1)c1nc2ccccc2s1 | 12.7
30 | CC(=O)Nc1ccc(Br)c(Cl)c1 | 12.6
31 | Cc1cc(C)cc(NC(=O)CSc2cc(C(=O)c3nccn3C)c3ccccc3n2)c1 | 3.89
32 | COc1cccc(CNC(=O)CCC2CCCN(C(=O)c3ccoc3C)C2)c1 (stereo not drawn) | 5.59
33 | CCC(C)Nc1nc(-c2ccccn2)nc2ccccc12 (stereo not drawn) | -11.6
34 | Nc1nnc(CC(=O)N/N=C/c2ccc(-c3ccc(F)cc3)o2)s1 | 8.53
35 | O=C(Nc1nnc(-c2ccncc2)o1)c1ccc2ccccc2c1 | 6.83
36 | CCCCCOC(=O)NCCOC(=O)Nc1ccc(C(=O)OCC)cc1 | 12.9
37 | CS(=O)(=O)c1ccc(Cl)c(NC(=O)c2ccc3ccccc3c2)c1 | 4.44
38 | CCCCOc1cccc(C(=O)Nc2ccccc2N2CCCC2)c1 | 13.1

Row | SMILES | hERG current change (%, negative = inhibition) at 1uM [%]
39 | Cc1ccc(NC(=O)CSc2nnc(CNC(=O)c3ccco3)o2)cc1 | 16.7
40 | CCCCOc1ccc(N2C(=O)CC(N(CCc3ccccc3)C(=O)/C=C/C(=O)O)C2=O)cc1 (stereo not drawn) | 14.4
41 | CC(=O)Nc1ccc(S(=O)(=O)NC2CCCCCC2)cc1 | 15.8
42 | Cc1cc(C)n(-c2ccc(C(=O)NC(C)C)cc2)n1 | -4.87
43 | C[n+]1cn(/N=C/c2ccccc2)c2ccccc21.[I-] | 7.04
44 | CC(NC(=O)Nc1ccc(F)cc1)c1ccc2c(c1)OCO2 (stereo not drawn) | 17.1
45 | Cc1ccc(NC(=O)c2noc3c2CC(C(C)(C)C)CC3)cc1 (stereo not drawn) | 11.7
46 | COC(=O)Cn1c2ccc(OC)cc2c2nc(C)sc21 | 9.67
47 | O=c1c2c([N+](=O)[O-])cc([N+](=O)[O-])cc2sn1-c1ccc(Br)cc1 | 12.6
48 | Cc1ccc(N=c2c([N+](=O)[O-])nn(-c3ccc(Cl)cc3)n2O)cc1C | 9.06
49 | O=S(=O)(/C=C/c1cccc(Br)c1)N1CCOCC1 | 11.7
50 | CC1(C)Cc2c(cnn2-c2ccccc2)C(NC(=O)CCCn2cncn2)C1 (stereo not drawn) | 8.8
51 | Cc1c(/C=N\NC(=O)C2COc3ccc(C(C)(C)C)cc3O2)c2ccccc2n1C (stereo not drawn) | 17.5
52 | O=C(NC1CCCCC1)c1ccc(S(=O)(=O)N2CCCC2)cc1 | 7.18
53 | CC(C)CC(c1nnnn1C1CCCC1)N1CCC(C(N)=O)CC1 (stereo not drawn) | 15.6
54 | COc1ccc(NC(=O)Nc2nccs2)cc1 | -4.33
55 | Cc1ccccc1-c1ocnc1C(=O)Nc1ccccc1NC(=O)c1ccccn1 | 15.2
56 | O=c1c2ccccc2nc(-c2ccco2)n1-c1nc2ccccc2s1 | 10.6
57 | C/C(=N\NC(=O)C1CC1)c1cccc(NC(=O)c2cccc(Cl)c2)c1 | 13.8
